Laboratory results taken from the RNAGym collection of RNA variant scans (doi:10.1093/nar/gkz1192).
The source gives no read counts; variants with many changes may rest on few reads.

B1: CPEB3 Ribozyme (parent)
chain: UAACAGGGGGCCACAGCAGAAGCGUUCACGUCGCAGCCCCUGUCAGAUUCUGGUGAAUCUGCGAAUUCUGCUGUAUAUCUC

Variants of: B1
Assay: self-cleavage, relative activity (ratio to wild type); higher = more cleavage; in vitro, sequencing
Outline: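 Relative activity compares each variant's cleaved/total read fraction with that of the unmutated ribozyme. To get these fractions, barcoded CPEB3 ribozyme libraries from rounds of error-prone PCR were transcribed with T7 RNA polymerase for 5 hours at 37°C and then given 15 min of DNase I treatment before EDTA was added. The RNAs were reverse transcribed with template switching and sequenced on Illumina, and DNA sequencing linked barcodes to variants. A minimum of 5 reads applied, and three batches were averaged.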
With U26C A57G U78A the self-cleavage was 0.43. In the case of U26C A57U A64U, the self-cleavage is reported as 0.15. In the case of U26C A57U U67A, the self-cleavage is reported as 0.34. In the case of U26C A64G C71U A75G A77G, the self-cleavage is reported as 0.08. U26C A64G G70U U72A gave a self-cleavage of 0.12. Variant U26C A64G U66C has a self-cleavage of 0.23. For U26C A64G U69A U74A, the self-cleavage was 0.14. U26C A64G U72A showed a self-cleavage of 0.21. In the case of U26C A64G U78C, the self-cleavage is reported as 0.27. With U26C A64U U76C the self-cleavage was 0.2. In the case of U26C A64U U80A, the self-cleavage is reported as 0.2. Work on U26C A65C U69G yielded a self-cleavage of 0.11. With U26C A65C U72C the self-cleavage was 0.12. In the case of U26C A65G U67C, the self-cleavage is reported as 0.29. U26C A75U U80C showed a self-cleavage of 0.42. U26C A77G U80C gave a self-cleavage of 0.42. Variant U26C C27A G33A A45G C62A has a self-cleavage of 0.07. With U26C C27A U69A U72C the self-cleavage was 0.27. U26C C27G U78C gave a self-cleavage of 0.29. Work on U26C C27U A47G A57G U60C yielded a self-cleavage of 0.14. In the case of U26C C27U A47U U49C U54C U60C, the self-cleavage is reported as 0.04. U26C C27U U60C gave a self-cleavage of 0.17. In the case of U26C C29A U41A, the self-cleavage is reported as 0.23. For U26C C29A U58A U74C U80C, the self-cleavage was 0.21. Variant U26C C29A U58A U78A has a self-cleavage of 0.18. Work on U26C C29A U69A yielded a self-cleavage of 0.19. In the case of U26C C29G A35C C39U, the self-cleavage is reported as 0.19. U26C C29G A45G showed a self-cleavage of 0.19. With U26C C29G U31C A35G U49C the self-cleavage was 0.06. Work on U26C C29G U48C A64C C68A yielded a self-cleavage of 0.07. In the case of U26C C29U A35G U41C U60C, the self-cleavage is reported as 0.1. For U26C C29U A35U A56G U60C, the self-cleavage was 0.11. Work on U26C C29U A57G A64G yielded a self-cleavage of 0.12. In the case of U26C C32A C68U, the self-cleavage is reported as 0.18. Variant U26C C32A G63U has a self-cleavage of 0.1. With U26C C32A U51C A65U U72C U76C the self-cleavage was 0.11. Work on U26C C32U A47G yielded a self-cleavage of 0.24. U26C C32U C37U U48A U67C showed a self-cleavage of 0.09. For U26C C32U C59A U74A, the self-cleavage was 0.19. In the case of U26C C32U G55A A65G, the self-cleavage is reported as 0.07. For U26C C32U U41A U51C, the self-cleavage was 0.1. U26C C34A C62A showed a self-cleavage of 0.11. Work on U26C C34A U41C A47G U51A A65G U76C yielded a self-cleavage of 0.08. U26C C34U U48C U49C A64U showed a self-cleavage of 0.08. In the case of U26C C34U U66C U80C, the self-cleavage is reported as 0.14. U26C C37A A64U U72A gave a self-cleavage of 0.08. In the case of U26C C37U A64U U78C, the self-cleavage is reported as 0.09. Variant U26C C37U U48A A56U U66C has a self-cleavage of 0.05. With U26C C37U U72A the self-cleavage was 0.13. U26C C38A A45G U54A U72C gave a self-cleavage of 0.18. Variant U26C C38A A56G has a self-cleavage of 0.13. For U26C C38A A64U, the self-cleavage was 0.24. In the case of U26C C38A U41C A47G U48C U69C U80C, the self-cleavage is reported as 0.2. With U26C C38A U41C U60C the self-cleavage was 0.27. For U26C C38A U69A, the self-cleavage was 0.15. U26C C38A U80C showed a self-cleavage of 0.27. For U26C C38G C59A C68U U80C, the self-cleavage was 0.17. In the case of U26C C38G U41C A56G U76C, the self-cleavage is reported as 0.04. U26C C38U U72C U74C U78A gave a self-cleavage of 0.32. With U26C C39A C59G U80G the self-cleavage was 0.06. U26C C39G U49C gave a self-cleavage of 0.2. With U26C C39U A64G the self-cleavage was 0.22. Variant U26C C39U U41A U49C A56C has a self-cleavage of 0.3. For U26C C39U U51C U76C, the self-cleavage was 0.37. For U26C C40A A45C U76C, the self-cleavage was 0.06. In the case of U26C C40A G53A A56G U58C, the self-cleavage is reported as 0.05. U26C C40G U48C A65G A75G U80C showed a self-cleavage of 0.05. Work on U26C C40U A45U G63C yielded a self-cleavage of 0.1. In the case of U26C C44A U49A, the self-cleavage is reported as 0.14. Work on U26C C44A U51A A56C U67C A77U U78A yielded a self-cleavage of 0.07. Work on U26C C44G C59G yielded a self-cleavage of 0.13. In the case of U26C C50A A56G, the self-cleavage is reported as 0.15. In the case of U26C C50A A57G, the self-cleavage is reported as 0.21. Variant U26C C50A A57U has a self-cleavage of 0.2. For U26C C50A G63A, the self-cleavage was 0.24. Work on U26C C50U A64G yielded a self-cleavage of 0.16. In the case of U26C C68G U69C, the self-cleavage is reported as 0.15. For U26C C68G U72C, the self-cleavage was 0.14. U26C G30A C32A A75G gave a self-cleavage of 0.15. Variant U26C G30U U31C C32U has a self-cleavage of 0.1. For U26C G33A A57U, the self-cleavage was 0.38. In the case of U26C G33A U48C, the self-cleavage is reported as 0.18. In the case of U26C G33A U66C, the self-cleavage is reported as 0.16.
